Reference: PubChem BioAssay AID248 (DTP/NCI, 2004)
Toxic doses and inconclusive results are not listed. Some entries of the source have several records that differ or are many. They are shown here; other results are not. The source may hold further records. Values that stand side by side are repeated measurements (runs, samples, wells, individuals or studies).

Tested on: L1210 leukemia ip in BDF1 mice, survival T/C
Test: NCI In Vivo Anticancer Drug Screen. Data for tumor model L1210 Leukemia (intraperitoneal) in B6D2F1 (BDF1) mice
Conditions: endpoint: mean survival time, higher = longer survival

With O=C(O)c1cc[c]([Hg][S]c2ncnc3nc[nH]c23)cc1 as the compound, how does the T/C (dose: 25.0 mg/kg/injection, schedule: Q01DX Z (ip), vehicle: carboxymethylcellulose (CMC)) read?
The T/C was 119 % of control and 152 % of control.

For N#[N+]c1cnc([O-])[nH]c1=O, which T/C (dose: 2.5 mg/kg/injection, schedule: Q01DX Z (ip), vehicle: saline) is on record?
The T/C was 109 % of control and 158 % of control.

Which T/C (dose: 23.3 mg/kg/injection, schedule: Q01DX015 (ip), vehicle: saline) does the source give for OCCOCCN1CCN(CC/C=C2\c3ccccc3Sc3ccc(C(F)(F)F)cc32)CC1 here?
Its T/C is 94 % of control and 152 % of control.

For CCOC(=O)c1cc(N(CCOS(C)(=O)=O)CCOS(C)(=O)=O)ccc1N, which T/C (dose: 5.0 mg/kg/injection, schedule: Q01DX015 (ip), vehicle: saline) is on record?
The T/C was 118 % of control and 154 % of control.

With CC1(C)OCC(CO)(Nc2nc(N3CC3)nc(N3CC3)n2)CO1 as the compound, how does the T/C (dose: 5.0 mg/kg/injection, schedule: Q01DX009 (ip), vehicle: saline) read?
The T/C was 108 % of control and 165 % of control.

Which T/C (dose: 12.5 mg/kg/injection, schedule: Q04DX003 (ip), vehicle: Klucel (hydroxypropylcellulose) (HPC)) does the source give for Cc1ccnc(NS(=O)(=O)c2ccc(N=Nc3nc4[nH]c(N)nc(=S)c4[nH]3)cc2)n1 here?
Its T/C is 107 % of control, 156 % of control, 157 % of control.

How did the T/C (dose: 2000.0 mg/kg/injection, schedule: Q01DX001 (ip), vehicle: saline) turn out when OCC1OC(n2cnc3c(=S)nc[nH]c32)C(O)C1O (centres undefined) was run?
The T/C was 114 % of control and 159 % of control.

Which T/C (dose: 100.0 mg/kg/injection, schedule: Q01DX009 (ip), vehicle: saline with Tween-80) does the source give for O=C(c1ccccc1)c1cc(-c2ccccc2)n(C2CCCCC2)c1 here?
The T/C was 92 % of control and 179 % of control.

O=C1C(NCCO)=C(N2CC2)C(=O)C(NCCO)=C1N1CC1 was tested. Which T/C (dose: 0.75 mg/kg/injection, schedule: Q01DX001 (ip), vehicle: saline) did it give?
Its T/C is 86 % of control and 198 % of control.
